Binding data for 2 substances are collected here from publication PMC4658161.

By UniProt entry, the sequences of proteins in these tests, tags left out.
UniProt Q96EP0: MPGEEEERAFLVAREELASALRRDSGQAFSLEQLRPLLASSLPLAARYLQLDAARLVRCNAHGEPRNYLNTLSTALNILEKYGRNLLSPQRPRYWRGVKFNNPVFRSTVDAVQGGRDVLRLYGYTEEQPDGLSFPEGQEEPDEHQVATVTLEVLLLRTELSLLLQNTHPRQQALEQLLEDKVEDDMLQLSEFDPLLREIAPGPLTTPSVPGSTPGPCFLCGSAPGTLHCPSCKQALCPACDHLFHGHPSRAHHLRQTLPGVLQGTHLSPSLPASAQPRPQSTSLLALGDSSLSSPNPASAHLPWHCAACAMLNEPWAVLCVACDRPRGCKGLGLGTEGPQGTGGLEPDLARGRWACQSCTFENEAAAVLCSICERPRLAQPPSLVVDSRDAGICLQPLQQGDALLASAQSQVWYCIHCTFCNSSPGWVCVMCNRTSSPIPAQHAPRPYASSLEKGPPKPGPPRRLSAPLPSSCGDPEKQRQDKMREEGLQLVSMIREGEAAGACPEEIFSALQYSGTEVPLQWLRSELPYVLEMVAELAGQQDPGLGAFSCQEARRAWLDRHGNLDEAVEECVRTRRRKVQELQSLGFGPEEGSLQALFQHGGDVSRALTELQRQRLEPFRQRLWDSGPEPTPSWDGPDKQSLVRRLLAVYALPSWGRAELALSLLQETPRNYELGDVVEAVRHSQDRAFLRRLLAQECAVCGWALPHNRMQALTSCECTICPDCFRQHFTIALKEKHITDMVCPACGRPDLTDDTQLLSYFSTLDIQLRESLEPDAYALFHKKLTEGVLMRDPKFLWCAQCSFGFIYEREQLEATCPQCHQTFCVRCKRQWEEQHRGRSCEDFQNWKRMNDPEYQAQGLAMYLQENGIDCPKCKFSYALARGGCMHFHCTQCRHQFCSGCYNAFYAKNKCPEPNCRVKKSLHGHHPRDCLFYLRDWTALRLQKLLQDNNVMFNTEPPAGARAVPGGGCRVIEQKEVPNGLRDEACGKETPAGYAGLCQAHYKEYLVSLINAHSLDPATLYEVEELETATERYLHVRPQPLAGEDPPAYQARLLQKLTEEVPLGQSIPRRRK

Test [1] deals with T1, GFP-SHARPIN^WT (UniProt Q9H0F6).
T1 sequence: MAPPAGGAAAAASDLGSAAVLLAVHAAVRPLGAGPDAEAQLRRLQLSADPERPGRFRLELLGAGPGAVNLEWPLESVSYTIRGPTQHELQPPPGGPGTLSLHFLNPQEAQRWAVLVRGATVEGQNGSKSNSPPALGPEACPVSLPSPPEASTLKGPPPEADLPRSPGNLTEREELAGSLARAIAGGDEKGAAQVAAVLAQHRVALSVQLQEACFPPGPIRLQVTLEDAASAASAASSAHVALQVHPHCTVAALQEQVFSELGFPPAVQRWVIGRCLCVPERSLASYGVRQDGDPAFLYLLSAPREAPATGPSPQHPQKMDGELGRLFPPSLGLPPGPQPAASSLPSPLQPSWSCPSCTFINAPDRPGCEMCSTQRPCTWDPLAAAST
Put plainly: pull-down; pull-down of GFP-SHARPIN from HEK293 cells, adherent or in suspension; RNF31 normalized to total RNF31 and pulled-down GFP-SHARPIN.

In test [2] the target is T2, endogenous ITGAL (Jurkat cells) (human (endogenous in Jurkat)) (UniProt P20701).
T2 sequence: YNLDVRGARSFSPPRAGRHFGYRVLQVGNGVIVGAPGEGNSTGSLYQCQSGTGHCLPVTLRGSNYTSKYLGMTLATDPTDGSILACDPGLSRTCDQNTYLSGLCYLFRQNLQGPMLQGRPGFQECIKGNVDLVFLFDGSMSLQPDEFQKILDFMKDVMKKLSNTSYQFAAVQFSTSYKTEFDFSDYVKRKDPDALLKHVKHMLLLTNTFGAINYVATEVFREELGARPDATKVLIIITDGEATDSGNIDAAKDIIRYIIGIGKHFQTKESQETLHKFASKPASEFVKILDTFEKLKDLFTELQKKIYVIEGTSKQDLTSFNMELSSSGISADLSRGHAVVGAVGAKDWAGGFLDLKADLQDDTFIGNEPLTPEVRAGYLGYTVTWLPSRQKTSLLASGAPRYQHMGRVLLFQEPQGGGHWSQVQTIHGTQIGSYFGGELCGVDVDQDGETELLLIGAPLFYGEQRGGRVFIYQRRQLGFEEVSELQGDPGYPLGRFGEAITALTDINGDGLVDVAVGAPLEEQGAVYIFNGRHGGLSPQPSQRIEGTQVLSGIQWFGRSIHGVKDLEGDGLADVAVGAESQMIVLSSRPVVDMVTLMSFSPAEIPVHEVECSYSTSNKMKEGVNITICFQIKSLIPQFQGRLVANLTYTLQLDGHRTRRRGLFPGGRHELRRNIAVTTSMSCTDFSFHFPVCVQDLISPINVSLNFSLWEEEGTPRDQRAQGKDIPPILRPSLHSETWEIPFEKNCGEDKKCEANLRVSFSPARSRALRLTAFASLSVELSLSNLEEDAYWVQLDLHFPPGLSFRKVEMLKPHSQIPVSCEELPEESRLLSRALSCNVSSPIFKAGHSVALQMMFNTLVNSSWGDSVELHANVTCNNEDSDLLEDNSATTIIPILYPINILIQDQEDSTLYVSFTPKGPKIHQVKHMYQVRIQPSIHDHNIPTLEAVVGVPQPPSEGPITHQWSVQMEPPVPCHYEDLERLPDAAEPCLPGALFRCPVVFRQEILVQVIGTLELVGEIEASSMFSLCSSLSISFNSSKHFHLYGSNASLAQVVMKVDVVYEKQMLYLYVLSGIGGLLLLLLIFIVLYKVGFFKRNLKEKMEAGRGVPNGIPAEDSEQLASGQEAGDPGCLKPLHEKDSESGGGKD
Put plainly: co-IP; endogenous proteins from Jurkat cells, immunoprecipitated with an ITGAL antibody (GFP antibody as negative control).

These are yes or no findings as the source states them, for the method shown. In cells and extracts the contact can be indirect. Some results given as binding are weak or reduced against the parent protein; the word gives no strength. For some assays here: Tags and fused reporters may be left off the sequences shown.

On to “RNF31 in HEK293 cells (from UniProt Q96EP0 1-1072) (enzyme)”, for which the binding result in test [1] is listed as “binds”. “endogenous RNF31 (Jurkat cells) (from UniProt Q96EP0 1-1072) (enzyme)”: in test [2], the binding entry is given as “no binding”.
